Laboratory results published in ChEMBL document CHEMBL4888484, “Replenishing the malaria drug discovery pipeline: Screening and hit evaluation of the MMV Hit Generation Library 1 (HGL1) against asexual blood stage Plasmodium falciparum ,using a nano luciferase reporter read-out” (2022).
About 540 (0.36%) of roughly 150,000 compounds showed an effect of 50% or more. This is one part of the list.

system: Plasmodium falciparum; assay: Primary screen in NF54 nanoGlo assay, in single point, at 2uM, 72h; a lower Z score goes with more inhibition; type: functional, Erythrocyte; details: timepoint 72 hour

SMILES | % Inhibition [%] | Z score
Cn1c(N2CCC[C@H]2c2ccc3c(c2)OCCCO3)c(C#N)c(=O)n(C)c1=O | 36 | -0.95
CC(CN1CCOCC1)NC(=O)N1CCCC1Cc1ccc(F)cc1 (stereo not drawn) | 16 | -2.08
Cc1cc(OCC(=O)Nc2ccc(N3CCCCC3)cc2)no1 | 30 | -3.87
CO[C@H]1CN(C2CCN(C(=O)NC(C)C)CC2)[C@H]1c1ccncc1 | -13 | 1.66
O=c1cc(CN2CCc3ccccc32)nc2ccccn12 | -13 | 1.19
O=C(Nc1ccccc1C(=O)N1CCC1)c1ccco1 | -21 | 2.01
N[C@@H]1C[C@@H]2CC(C(=O)NCc3ccnc(-c4ccccc4)c3)C[C@@H]21 (stereo partly drawn) | -17 | 2.72
C=CC(C)ONC(=O)NC(c1ccccc1)C1(CO)CCC1 (stereo not drawn) | -7 | 0.92
CC[C@H](CO)NC(=O)NC(C)c1ccc(Br)cn1 (stereo partly drawn) | -4 | 0.64
Cc1ccc(C)c(-n2cnc(=O)n2[C@H]2CCN(C3CC3)C2=O)c1 | 31 | -5.97
CN(CC(O)C(F)(F)F)C(=O)NC1CCN(CC2CCCC2)C1 (stereo not drawn) | 2 | -0.2
Cn1c(CC(=O)Nc2cc(C3CCOCC3)[nH]n2)nnc1-c1ccccc1 | 0 | 0.04
C[C@@H]1CN(c2ccnc3ccsc23)CC(C(N)=O)O1 (stereo partly drawn) | 3 | -0.34
CCN(CC)C(=O)NC[C@@H]1C[C@H](F)CN1C(=O)c1ccc(Cl)cc1O | -5 | 0.83
C[C@@H](C1CC1)n1nccc1NCc1ccc(OCC2CC2)cc1 | -11 | 2.15
O=C(Nc1ccc2c(c1)OCO2)[C@@H](c1ccccc1)N(Cc1ccccc1)c1ccccc1 | 5 | -0.71
CCCN(C(=O)c1nn(C)c2ccccc2c1=O)C(C)C | -11 | 1.38
CCc1nsc(N2CCCC3C(NC(=O)C(C)(F)F)C(C)(C)C32)n1 (stereo not drawn) | 16 | -2.01
CN1CCN(CCN(Cc2ccc(Br)cc2F)C(=O)[C@H]2CCOC2)CC1 | -7 | 0.6
CCCCCOC(=O)Nc1nnc(C)s1 | -21 | 2.77
CN(C[C@H]1CCCCO1)C(=O)c1ccc(CN2CCc3ccccc3C2)o1 | -8 | 1.57
Cc1nccn1CC1(CNC(=O)c2ccc3c(=O)n(C)cnc3c2)CC1 | 0 | -0.07
C[C@@H](CNC(=O)c1ccc(C(F)F)c(F)c1)S(N)(=O)=O | -15 | 1.61
O=S(=O)(c1cccs1)N1CCC(Oc2ncnc3c2CCOCC3)CC1 | -5 | 0.81
CC(C)c1ccccc1S(=O)(=O)NCC(=O)NC(C)(C)C | -1 | 0.12
COc1ccc(CC(C)CNC(=O)N(C)C2CCN(C)CC2C)cc1 (stereo not drawn) | 10 | -0.94
O=C(Nc1ccc(CCN2CCC(O)CC2)cc1)c1ccc(F)cc1 | -15 | 1.49

SMILES | % Inhibition [%] | Z score
CN(Cc1cccs1)C(=O)Cn1cnc2c1CCNC21CCOCC1 | -5 | 0.79
Cc1n[nH]c(C)c1CCNc1cc([C@H]2C[C@H](N)C2)nc(C2CC2)n1 | 3 | -0.48
CN1CC2(CCN(C(=O)c3ccoc3)CC2)C[C@@H](c2ccccc2)C1=O | -2 | 0.44
CCOc1ccccc1-c1cc(-c2c(C)nn(C)c2C)nc(CC(=O)NC)n1 | -6 | 0.81
COc1cc2c(cc1OC)CN(C(=O)c1cccc(NS(=O)(=O)c3cccc(Cl)c3)c1)CC2 | -9 | 1.24
O=C(Nc1ccc(-c2ccccc2C(F)(F)F)s1)C(F)(F)F | -36 | 4.24
O=S1(=O)CCC[C@H](CNc2cccc3c2OCO3)C1 | -3 | 0.29
CCCN(C[C@H]1CCOC1)C(=O)NC | -3 | 0.42
CC1CN(C(=O)c2ccc(-n3cccn3)nc2)CC(C)O1 (stereo not drawn) | -1 | 0.08
CC1(C)NC(=O)N(Cc2noc(-c3ccco3)n2)C1=O | 4 | -0.45
Cc1cc(NS(=O)(=O)NC(C)(C)C)no1 | 4 | -0.81
COc1ncccc1CNC(=O)CCCN(C)C(=O)OC(C)(C)C | -2 | 0.33
CCCOc1ccc(-c2ccc(-c3noc(-c4c(-c5ccccc5Cl)noc4C)n3)cc2)cc1 | -4 | 0.42
O=S1(=O)N[C@@H]2CN(CCCc3ccccc3)C[C@@H]2Oc2ccccc21 | 1 | -0.09
CN1CCN(C(=O)CCc2ccncc2)C[C@H]1C(C)(C)C | -2 | 0.31
CC(C)CN1CCN([C@H]2CCOC3(CCN(S(=O)(=O)c4ccccc4)CC3)C2)CC1 | -19 | 2.05
Cc1cc(O)nc(NC(=O)CCc2ccc(=O)n(C)n2)n1 | 8 | -0.99
Cc1cc(OCc2c(F)cccc2Cl)nc(N(C)C)n1 | 2 | -0.18
CCOC1CC(CCNC(=O)Cn2ccnn2)C1 (stereo not drawn) | -10 | 1.46
O=C(O)c1ccc(CN2Cc3nc[nH]c3C[C@H]2c2nc(-c3ccc4ccccc4c3)no2)cc1 | -2 | 0.33
Cc1nnc(NC(=O)C2CCCC2)n1C | -6 | 0.52
N#Cc1ccc(-c2nc(-c3ccc4c(c3)nnn4CCC(=O)N3CCCC3)no2)cc1 | -12 | 1.57
O=C(c1cn[nH]c1)N1CCN(Cc2ccc(Br)cc2)CC1 | -13 | 1.15
O=C(Cc1ccn[nH]1)N[C@H]1CCN(c2ccc(Cl)cc2Cl)C1 | -1 | 0.12
CCn1nc(CO)c2c1CCN(C(=O)NCCC1CCCCCC1)C2 | -12 | 1.05
CC(C)=CCO[C@H]1COCC[C@@H]1NC(=O)c1c(C)noc1C | -10 | 1.21
O=C(CC[C@H]1CCCN(S(=O)(=O)c2ccccc2F)C1)NCCN1CCOCC1 | -13 | 1.81
